In all, about 310,000 compounds went through this assay and about 14,000 (4.5%) showed an effect of 50% or more. Effects have a minus sign here. The list shows a part of the results.
Each compound was assayed against human ether-à-go-go-related gene (hERG) potassium channel (human, UniProt Q12809) (assay: primary screen, population patch clamp on CHO cells stably expressing hERG).
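Also: peak tail current of the secondary pulse compared with the same well before compound.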

Chain of human ether-à-go-go-related gene (hERG) potassium channel (Q12809 whole entry, looked up): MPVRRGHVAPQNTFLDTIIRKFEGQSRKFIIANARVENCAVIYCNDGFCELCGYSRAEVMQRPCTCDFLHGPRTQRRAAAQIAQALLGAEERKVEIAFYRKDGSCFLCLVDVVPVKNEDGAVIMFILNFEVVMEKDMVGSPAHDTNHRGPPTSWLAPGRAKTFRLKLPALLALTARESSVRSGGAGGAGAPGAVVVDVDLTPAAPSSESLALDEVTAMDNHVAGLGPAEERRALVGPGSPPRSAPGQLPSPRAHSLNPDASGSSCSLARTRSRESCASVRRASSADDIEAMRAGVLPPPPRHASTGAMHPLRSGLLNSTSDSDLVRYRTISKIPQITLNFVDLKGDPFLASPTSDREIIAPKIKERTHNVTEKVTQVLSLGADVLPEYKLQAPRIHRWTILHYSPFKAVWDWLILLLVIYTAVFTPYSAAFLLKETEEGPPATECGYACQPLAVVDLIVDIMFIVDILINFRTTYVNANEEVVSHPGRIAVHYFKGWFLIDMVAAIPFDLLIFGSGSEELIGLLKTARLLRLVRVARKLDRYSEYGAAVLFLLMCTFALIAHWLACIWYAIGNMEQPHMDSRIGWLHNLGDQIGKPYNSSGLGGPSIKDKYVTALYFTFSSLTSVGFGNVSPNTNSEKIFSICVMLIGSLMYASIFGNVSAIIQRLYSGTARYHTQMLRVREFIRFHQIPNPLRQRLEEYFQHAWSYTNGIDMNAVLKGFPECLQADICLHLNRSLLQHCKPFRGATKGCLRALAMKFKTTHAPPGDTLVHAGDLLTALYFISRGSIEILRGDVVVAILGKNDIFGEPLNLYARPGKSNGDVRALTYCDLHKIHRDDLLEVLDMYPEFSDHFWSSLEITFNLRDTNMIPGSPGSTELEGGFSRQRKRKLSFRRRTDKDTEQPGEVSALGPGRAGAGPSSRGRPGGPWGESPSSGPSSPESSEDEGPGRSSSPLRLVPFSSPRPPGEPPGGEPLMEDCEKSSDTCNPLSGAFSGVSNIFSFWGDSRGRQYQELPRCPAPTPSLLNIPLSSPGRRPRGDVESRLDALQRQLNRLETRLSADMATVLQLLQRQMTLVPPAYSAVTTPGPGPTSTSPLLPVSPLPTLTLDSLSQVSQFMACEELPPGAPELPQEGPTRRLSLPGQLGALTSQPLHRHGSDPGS

Compound	hERG current change (%, negative = inhibition) at 10uM [%]
CCN(CC)S(=O)(=O)c1ccc2nc(CCl)[nH]c2c1	-16.7
O=C(NC1CCCC1)C1CCC(CNS(=O)(=O)c2cccs2)CC1 (stereo not shown)	-5.73
O=[N+]([O-])c1ccc(F)cc1F	15.4
O=C(COc1ccc(Cl)cc1)Nc1ccc(NC(=O)c2ccco2)cc1	13.4
CC1Cc2ccccc2N1C(=O)COC(=O)c1cc(Br)ccc1O (stereo not shown)	0.761
Cc1cc2c(cc1C)C(c1cc(Br)ccc1F)CC(=O)N2 (stereo not shown)	8.78
CC1=C(C(=O)NC(C)c2ccccc2)C2(CCC(C)CC2)OC1=O (stereo not shown)	-4.71
Cc1oc(CN2CCOCC2)cc1C(=O)O	20.2
O=C(Nc1ccc2c(c1)OCO2)O[C@@H]1C[C@H]2CCCC(=O)N3CC[C@@H](C1)[C@@H]23	11.4
COc1ccc(NC(=O)NC2CCCc3ccccc32)c(OC)c1 (stereo not shown)	13.3
Cc1[nH]c2ccccc2c1C(=O)COC(=O)c1c(-c2ccccc2Cl)noc1C	-8.21
Cc1ccccc1-c1noc(CCC(=O)NCc2ccco2)n1	-2.05
Cc1cccc2c1cnn2C(=O)Nc1ccc(Br)cc1F	27.8
CCCCCC1=NN2C(=O)CC(=O)N=C2S1	-13.8
COc1ccccc1N1CCN(CC(=O)Nc2sccc2C#N)CC1	-13.5
C=CCNC(=O)c1onc(CSc2ccccc2CC)c1C(=O)O	3.21
O=C(Nc1nnc(COc2ccc(Br)cc2)s1)c1ccco1	21.9
CCOc1ccc(NC(=O)CC2C(=O)N(C)C(=S)N2Cc2ccco2)cc1 (stereo not shown)	-41.8
CC(=O)O.COc1ccc(OC)c(C2CC(=O)C(C)C(c3cc(OC)ccc3OC)N2)c1 (stereo not shown)	15.7
CCn1cc(C(=O)O)c(=O)c2cc(F)c(N3CCN(C(=S)NC(=O)c4ccc(F)cc4)CC3)cc21	-2.02
CC(C)c1ccc(NC(=O)CSC(C)c2nc3ccccc3c(=O)[nH]2)cc1 (stereo not shown)	-2.85
COC(=O)c1ccc(OCC(O)Cn2nnc3ccccc32)cc1 (stereo not shown)	-6.79
O=S(=O)(c1c(F)cccc1F)N1CCCC2CCCCC21 (stereo not shown)	-2.32
CN(C)c1ccc(/C=N/NC(=O)CCC(=O)NCc2ccccc2)cc1	11.3
O=C(Nc1ccccc1C(=O)O)c1ccc2c(c1)C(=O)N(c1cccc([N+](=O)[O-])c1)C2=O	12

Source: publication PMC4336329 (PLoS ONE, 2015)
